PubChem BioAssay AID504832 (National Center for Advancing Translational Sciences (NCATS), 2011)
Among all 310,000 compounds or so, about 18,000 (5.8%) were called active. The inconclusive results got no clear call from the source; some entries with a clear call stand among them for comparison. Calls come from the whole dose curve; as a rule, active = well fitted inhibition curve with a large enough effect; inconclusive = small, poorly fitted or top-dose-only effect, or another doubt; inactive = no such curve, though single readings can be large or run the other way. Potencies of inconclusive entries are left out as doubtful fits.

assay: Primary qHTS for delayed death inhibitors of the malarial parasite plastid, 48 hour incubation; settings: P. falciparum luciferase growth in erythrocytes; series mostly up to 28.7 µM; activity change, negative = inhibition: at the top concentration
Method in brief: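 Here the parasites carry a stable luciferase gene and grow inside erythrocytes in Albumax-based RPMI medium with compound for one erythrocytic cycle. Activity is scored as loss of luminescent signal.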
% is set by controls: 0 for no effect and ±100 for the full control effect; potency is the fitted concentration of half-maximal effect; tags give direction and shape of the fitted curve.

Q: With `CCn1cc(C(=O)OC)c(=O)c2cc(S(=O)(=O)N(C)C3CCCCC3)ccc21` as the compound, how does the Potency read?
A: inconclusive [inhibitor, partial curve]

Q: Which Potency does the source give for `NNC(=O)C1CC1(c1ccccc1)c1ccccc1` (stereo not given) here?
A: inconclusive [inhibitor, single point]

Q: Which Potency does the source give for `CC(C)CN(C(=O)CSc1nnc(-c2cccs2)n1N)c1c(N)n(Cc2ccccc2)c(=O)[nH]c1=O` here?
A: inconclusive [inhibitor, partial curve, poor fit]

Q: Which “activity change, negative = inhibition” value does the source give for `CC(C)CCNC(=O)NC(=O)CSc1ncccn1` here?
A: inactive: 0.122%

Q: With `c1ccc(C2CC(c3cccs3)n3nnnc3N2)cc1` (stereo not given) as the compound, how does the Potency read?
A: inconclusive [inhibitor, partial curve, poor fit]

Q: For `COc1ccc([C@]23Cc4ccccc4C(O2)C2=C(CC4(CCCCC4)OC2=O)O3)cc1`, which Potency is on record?
A: inconclusive [inhibitor, single point]

Q: With `Cc1nnc(NC(=O)CSc2nc3[nH]ncc3c(=O)[nH]2)s1` as the compound, how does the “activity change, negative = inhibition” value read?
A: inactive: 0%

Q: For `CC1(C)NC(=O)N(CC(O)CN(c2cccc([N+](=O)[O-])c2)S(=O)(=O)c2ccccc2)C1=O` (stereo not given), which “activity change, negative = inhibition” value is on record?
A: inactive: 23.9%

Q: For `Cc1cc(C(=O)COC(=O)COc2ccc(C#N)cc2)c(C)n1C1CC1`, which “activity change, negative = inhibition” value is on record?
A: inactive: 7.66%

Q: With `CC1CN(C(=O)CCNC(=O)c2ccc(Cl)cc2)CC(C)O1` (stereo not given) as the compound, how does the “activity change, negative = inhibition” value read?
A: inactive: 2.4%

Q: With `CC/C(C)=N/Nc1nc2c(c(=O)[nH]c(=O)n2C)n1Cc1ccccc1` as the compound, how does the Potency read?
A: inconclusive [inhibitor, partial curve, poor fit]

Q: For `O=C(COc1ccc(C(=S)N2CCCC2)cc1)Nc1ccc(F)cc1`, which “activity change, negative = inhibition” value is on record?
A: inactive: -21.8%

Q: With `Cc1nc(Nc2ccccc2)sc1C(=O)Nc1ccccc1` as the compound, how does the Potency read?
A: inconclusive [inhibitor, single point]

Q: For `CCC(=O)c1ccc(OCC(=O)OCC(=O)NCCCc2ccccc2)cc1`, which “activity change, negative = inhibition” value is on record?
A: inactive: -4.64%

Q: Which Potency does the source give for `O=C(O)c1ccn(CSc2cc(Cl)ccc2Cl)n1` here?
A: inconclusive [inhibitor, single point]

Q: With `CC(=O)Nc1ccc(-c2csc(N/N=C\c3ccncc3)n2)cc1` as the compound, how does the Potency read?
A: inconclusive [inhibitor, partial curve]

Q: With `CCn1cc(C(=O)NCCCN2CCCCCC2)c(=O)c2cc(S(=O)(=O)N3CCc4ccccc4C3)ccc21` as the compound, how does the Potency read?
A: active: 5.22 µM

Q: With `CN1CC(=O)NC1=NC(=O)C12CC3CC(CC(C3)C1)C2` as the compound, how does the Potency read?
A: inconclusive [inhibitor, full curve, poor fit]

Q: For `CCCCc1nnc(NC(=O)CSc2nc(=O)cc(N)n2-c2ccccc2)s1`, which Potency is on record?
A: inconclusive [inhibitor, partial curve, poor fit]

Q: For `CCC(C)Nc1nc2c(c(=O)n(C)c(=O)n2C)n1Cc1cccc(C)c1` (stereo not given), which Potency is on record?
A: active: 14.7 µM
